According to PubChem BioAssay AID686979 (National Center for Advancing Translational Sciences (NCATS), 2013):
Screen size: about 420,000 compounds; about 50,000 (12%) were called active. The inconclusive results got no clear call from the source; some entries with a clear call stand among them for comparison. Calls come from the whole dose curve; as a rule, active = well fitted inhibition curve with a large enough effect; inconclusive = small, poorly fitted or top-dose-only effect; inactive = flat fitted curve, though single readings scatter. No potency is given beside an inconclusive call; the fits are too rough.

Experiment: qHTS for Inhibitors of human tyrosyl-DNA phosphodiesterase 1 (TDP1): qHTS in cells in presence of CPT; note: nearly all actives have a fitted effect of over 55% in size
Settings: chicken DT40 Tdp1-/-;hTDP1 cells + 20 nM CPT, ATP luminescence, 48 h; activity change, negative = growth inhibition: at 46.2 µM (top of the series) unless noted
Procedure, shortened: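 Cell growth measured by CellTiter-Glo luminescence after a minimum 48 h, 37 C compound exposure with 20 nM CPT in Tdp1-knockout DT40 cells stably expressing hTDP1, seeded 400/well; qHTS titration format.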
% is set by controls: 0 for no effect and ±100 for the full control effect; potency is the fitted concentration of half-maximal effect; tags give direction and shape of the fitted curve.

Row | SMILES | Potency | activity change, negative = growth inhibition
1 | Cc1cccc(NC(=O)CSc2nc3ccc(NC(=O)COc4ccccc4C)cc3s2)c1 | active: 14.6 µM | 
2 | CCn1c(=O)cc(C(F)(F)F)[nH]c1=S |  | inactive: -28.8%
3 | Cc1cc(C)cc(C(=O)OCC(=O)Nc2cccc(S(=O)(=O)NC3=NCCCCC3)c2)c1 | inconclusive [inhibitor, single point] | 
4 | C[C@H](CO)N1C[C@H](C)[C@@H](CN(C)S(=O)(=O)c2ccccc2F)Oc2ncc(C#Cc3cccnc3)cc2C1=O | inconclusive [inhibitor, single point] | 
5 | CCN(CC)S(=O)(=O)c1ccc(Cl)c(C(=O)NNC(=O)c2csc(N3CCOCC3)n2)c1 |  | inactive: -20.6%
6 | Cc1nc2c(C(=O)NCc3ccc4c(c3)OCO4)c[nH]n2c(=O)c1Cl |  | inactive: -18.2%
7 | Cc1ccc(S(=O)(=O)NCCC(=O)Nc2nnc(C)s2)cc1 |  | inactive: -29.4%
8 | CC(CCO)Nc1nc2c(c(=O)n(C)c(=O)n2C)n1Cc1cccc(Br)c1 (centres undefined) | active: 11.6 µM | 
9 | CCN(CC(=O)Nc1ccc(C)c(S(=O)(=O)N(C)C)c1)Cc1ccccc1 | inconclusive [inhibitor, single point] | 
10 | Cc1ccc(C)c(CC(=O)N2CCCC(c3cc(C(=O)Nc4ccccc4Cl)no3)C2)c1 (centres undefined) | inconclusive [inhibitor, single point] | 
11 | COc1ccc(NC(=O)c2oc3ccc(S(=O)(=O)N4CCC5(CC4)OCCO5)cc3c2C)cc1 | active: 15.8 µM | 
12 | Cc1ccc(-n2cnc(N)c2C(=O)c2cccc([N+](=O)[O-])c2)cc1 | inconclusive [inhibitor, single point] | 
13 | O=C(Nc1ccc(Cl)cc1)c1csc([C@@H]2O[C@H](CO)[C@H](O)[C@H](O)[C@H]2O)n1 |  | inactive: -10.8%
14 | Cc1cc(=O)[nH]c(SCC(=O)Nc2nnc(CC(C)C)s2)n1 |  | inconclusive: -31.4% [inhibitor]
15 | Cc1cc(C)c(S(=O)(=O)N2CCCOC2CNC(=O)C(=O)NCc2ccco2)c(C)c1 (centres undefined) |  | inactive: 6.47%
16 | CSC1=C(C#N)C(CC(C)C)C2=C(CCCC2=O)N1 (centres undefined) | inconclusive [inhibitor, single point] | 
17 | CCn1c2c(c(=O)n3ncc(C(=O)Nc4cc(Cl)ccc4OC)c13)CN(Cc1ccc(OC)cc1)CC2 | inconclusive [inhibitor, single point] | 
18 | Cc1ccc(S(=O)(=O)N2CC3C(=O)C[C@@H](c4ccccc4)N(S(=O)(=O)c4ccc(CCCOCCOCCNC(=O)OC(C)(C)C)cc4)C3CC2c2ccccc2)cc1 (some centres undefined) | inconclusive [inhibitor, full curve, poor fit] | 
19 | Cc1c(C(=O)OCCOc2ccccc2)[nH]c2c1C(=O)CC(c1ccc(C(C)(C)C)cc1)C2 (centres undefined) |  | inactive: -26.4%
20 | COC(=O)c1cc(S(=O)(=O)Nc2ccc(C)c(F)c2)c[nH]1 | inconclusive [inhibitor, single point] | 
21 | O=S(=O)(NCc1ccccc1Cl)c1ccc(-n2cccn2)cc1 | inconclusive [inhibitor, single point] | 
22 | COc1ccc(CN2CCCC(CO)(Cc3ccc(F)cc3)C2)cc1C (centres undefined) | inconclusive [inhibitor, single point] | 
23 | COCCNC(=O)[C@H]1N2C(=O)c3ccccc3C2SC1(C)C (some centres undefined) |  | inactive: -5.35%

Row | SMILES | Potency | activity change, negative = growth inhibition
24 | O=S(=O)(c1cccc(S(=O)(=O)N2CCCC2)c1)c1cccc(S(=O)(=O)N2CCCC2)c1 | active: 13 µM | 
25 | CC1CN(C(=O)NCc2ccccc2)c2cc(Cl)ccc2O1 (centres undefined) | inconclusive [inhibitor, single point] | 
26 | O=C(c1cc(-c2ccco2)nn1-c1cccc(Cl)c1)N1CCCCC1 | active: 16.4 µM | 
27 | COc1ccc(S(=O)(=O)N2CCN(C(=O)c3c(C)nn(-c4ccccc4)c3Cl)CC2)cc1 | inconclusive [inhibitor, single point] | 
28 | COc1ccc(NC(=O)c2ccc([N+](=O)[O-])s2)c([N+](=O)[O-])c1 |  | inactive: -27.1%
29 | Cc1ccc(S(=O)(=O)Nc2ccc3oc(=O)sc3c2)c(C)c1 | inconclusive [inhibitor, single point] | 
30 | CCOC(=O)C1CCN(C(=O)CCc2nc3ccccc3[nH]2)CC1 | inconclusive [inhibitor, full curve, poor fit] | 
31 | O=C(c1ccc2c(c1)OCCO2)N1CCCCC1 |  | inactive: 4.27%
32 | CCCOc1ccc(CNC(=O)C2CCN(c3nnc(N4CCCC4=O)s3)CC2)cc1 | inconclusive [inhibitor, full curve] | 
33 | COc1ccc(N2CCN(C(=O)c3cc(=O)c4cc(C)cc(C)c4o3)CC2)cc1 | active: 13 µM | 
34 | O=C1Nc2ccc([N+](=O)[O-])cc2C1(O)N1CCCCCC1 (centres undefined) |  | inactive: -2.89%
35 | N#Cc1ccc(S(=O)(=O)N2CCCCC2c2cc(C(=O)N3CCOCC3)no2)cc1 (centres undefined) |  | inactive: -5.22%
36 | CCC(NC(=O)c1ccccc1NC(=O)c1ccc(OC)cc1)C(=O)N1CCCC1 (centres undefined) |  | inactive: -29.5%
37 | COc1cccc(CNC(=O)c2cc(-c3ccc(Cl)s3)nc3ccccc23)c1 | inconclusive [inhibitor, single point] | 
38 | CC(=O)/C(=N\Nc1ccc(Cl)cc1Cl)Sc1nnc(-c2ccccc2)n1-c1ccccc1 | inconclusive [inhibitor, partial curve, poor fit] | 
39 | COc1ccc(NC(=O)c2nc(S(C)(=O)=O)ncc2N(Cc2ccc(C)cc2)Cc2ccco2)cc1Cl | inconclusive [inhibitor, partial curve] | 
40 | CCc1ccc(NC(=O)C2CCCN(S(C)(=O)=O)C2)cc1 (centres undefined) | inconclusive [inhibitor, partial curve, poor fit] | 
41 | Cc1ccccc1CSc1nnc(-c2cccs2)n1Cc1ccco1 | inconclusive [inhibitor, single point] | 
42 | COC(=O)c1ccsc1NC(=O)CCS(=O)(=O)c1ccc(Cl)cc1 | inconclusive [inhibitor, single point] | 
43 | CCN(CC)S(=O)(=O)c1ccc(NN)nc1 | active: 20.6 µM | 
44 | CCc1ccc(C2(O)CC(C(F)(F)F)=NN2C(=O)Cc2ccc([N+](=O)[O-])cc2)cc1 (centres undefined) |  | inconclusive: -37% [inhibitor]
45 | CCC(C)C(NC(=O)c1ccccc1NC(=O)c1ccco1)C(=O)NNC(=O)c1ccncc1 (centres undefined) |  | inactive: 6.32%
46 | Cc1ccc(C)n1-n1cnc2sc3c(c2c1=O)CCCCC3 | inconclusive [inhibitor, full curve, poor fit] | 

Row | SMILES | Potency | activity change, negative = growth inhibition
47 | O=S(=O)(N=C(NS(=O)(=O)c1ccc(Cl)cc1)c1ccccc1)c1ccc(Cl)cc1 |  | inactive: 16.1%
48 | Cc1ccc(CNC(=O)C2CCC(=O)N(Cc3cccc(C(F)(F)F)c3)C2)o1 (centres undefined) | inconclusive [inhibitor, partial curve] | 
49 | Fc1cccc(CNCC2CCCO2)c1 (centres undefined) |  | inactive: -7.33%
50 | COc1ccccc1CC1(C)C(=O)Nc2ccc(OC(F)(F)F)cc21 (centres undefined) | inconclusive [inhibitor, partial curve, poor fit] | 
51 | CCCCc1cc(=O)oc2cc(C)c3c(C(C)(C)C)coc3c12 | inconclusive [inhibitor, single point] | 
52 | Cc1ccc(C(=O)O)c(NC=O)c1OCc1ccccc1 |  | inactive: 20.1%
53 | C/C(=C1/C=Nc2ccccc21)c1ccc(N(C)C)cc1 | active: 7.94 µM | 
54 | c1ccc(C2[C@H]3CN(Cc4cccnc4)[C@H](c4ccccc4)C34CC2(c2cccnc2)C4)cc1 (some centres undefined) | inconclusive [inhibitor, single point] | 
55 | O=C(NCCc1ccccc1)c1cnc2ccccc2n1 | inconclusive [inhibitor, single point] | 
56 | NNC(=O)CNC(c1ccccc1)c1cc(Cl)ccc1NC(=O)c1ccccc1 (centres undefined) |  | inconclusive: -32.2% [inhibitor]
57 | CCCc1cc(=O)oc2c(CN3CCCC3)c(O)c(Cl)cc12 |  | inconclusive: -30.1% [inhibitor]
58 | COCCN=C1Sc2nc3cc(C)c(C)cc3cc2CN1Cc1cccs1 | inconclusive [inhibitor, single point] | 
59 | COc1nc(NCc2ccco2)nc(N2CCC(C)CC2)n1 | inconclusive [inhibitor, single point] | 
60 | c1csc(CNc2nc(-c3ccoc3)nc3ccccc23)c1 | inconclusive [inhibitor, single point] | 
61 | CN(C)CCSc1nc(N)c2c3c(sc2n1)CN(C)CC3 | inconclusive [inhibitor, single point] | 
62 | CCS(=O)(=O)Nc1ccc(C2=NN(C(=O)c3ccco3)C(c3ccco3)C2)cc1 (centres undefined) | active: 4.61 µM | 
63 | CC(=O)N1c2ccc(S(=O)(=O)NCCC(=O)N3CCCC(C)C3)cc2CC1C (centres undefined) | active: 18.4 µM | 
64 | O=C(Cc1ccccc1)N/N=C/c1cc2c(cc1Cl)OCO2 | inconclusive [inhibitor, partial curve] | 
65 | NNc1nc2c(Cl)c(Cl)ccc2s1 | inconclusive [inhibitor, single point] | 
66 | COc1ccc(C(=O)/C=C2/c3ccccc3CC(C)(C)N2C)cc1OC | inconclusive [inhibitor, single point] | 
67 | Cc1ncc(CO)c2c1Oc1nc(-c3ccc(Cl)cc3)nc(SCC(=O)N3CCCCC3)c1C2 | inconclusive [inhibitor, single point] | 
68 | O=C(Nc1ccc(Nc2ccccc2)cc1)c1cc([N+](=O)[O-])ccc1Cl | inconclusive [inhibitor, single point] | 
69 | O=C(O)/C=C\C(=O)Nc1ccccc1C#Cc1ccc(Br)cc1 | inconclusive [inhibitor, single point] | 
